According to PMC9922296, “Mechanistic insights into RNA surveillance by the canonical poly(A) polymerase Pla1 of the MTREC complex” (Nature Communications, 2023):
Substitutions are numbered along the chain they refer to. Names and notes keep the numbering of the source. No constants are given. Whether binding was seen depends on the method and setting. For part of these data: Binding seen in cells or lysates may run through a third protein. Some results given as binding are weak or reduced against the parent protein; the word gives no strength. For part of these data: Tags and fused reporters may be left off the sequences shown. Blank lines part the entries; values can stand above or below the binder they belong to.

Assays:
[1] = target: T1, Full-length Pla1 fused to the Gal4 DNA binding domain (S. pombe) (UniProt Q10295); assay: two-hybrid; Gal4 DNA binding domain (pGBKT7) and activation domain (pGADT7) fusions co-transformed into PJ69-4A; 10-fold serial dilutions on SDC-Leu-Trp, -His (weak) and -Ade (strong), 30 °C, 3 days
T1 sequence: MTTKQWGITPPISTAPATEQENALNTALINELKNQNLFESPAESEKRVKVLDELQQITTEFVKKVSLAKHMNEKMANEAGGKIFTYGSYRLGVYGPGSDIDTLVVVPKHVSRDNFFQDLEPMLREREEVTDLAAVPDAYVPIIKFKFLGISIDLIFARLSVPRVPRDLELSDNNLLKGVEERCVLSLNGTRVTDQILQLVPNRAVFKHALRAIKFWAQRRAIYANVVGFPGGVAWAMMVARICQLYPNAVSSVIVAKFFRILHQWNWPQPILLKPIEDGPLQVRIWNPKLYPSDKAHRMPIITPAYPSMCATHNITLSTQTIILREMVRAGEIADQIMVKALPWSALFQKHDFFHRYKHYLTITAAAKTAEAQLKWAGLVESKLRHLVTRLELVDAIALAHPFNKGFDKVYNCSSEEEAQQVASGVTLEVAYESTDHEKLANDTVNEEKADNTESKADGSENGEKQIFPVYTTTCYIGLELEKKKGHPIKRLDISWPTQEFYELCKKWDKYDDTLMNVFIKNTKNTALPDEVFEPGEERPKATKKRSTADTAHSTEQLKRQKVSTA

[2] = target: T2, Pla1 RRM domain (residues 352-566) fused to the Gal4 DNA binding domain (S. pombe) (UniProt Q10295); assay: as above
T2 sequence: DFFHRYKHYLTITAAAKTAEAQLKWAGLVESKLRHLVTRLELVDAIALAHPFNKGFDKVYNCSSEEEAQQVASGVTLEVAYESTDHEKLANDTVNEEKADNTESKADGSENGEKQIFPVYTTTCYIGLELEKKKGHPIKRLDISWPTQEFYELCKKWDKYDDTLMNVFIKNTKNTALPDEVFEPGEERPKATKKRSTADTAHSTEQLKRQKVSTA

[3] = target: T3, Pla1 NTD-MD (residues 1-352) fused to the Gal4 DNA binding domain (S. pombe) (UniProt Q10295); assay: as above
T3 sequence: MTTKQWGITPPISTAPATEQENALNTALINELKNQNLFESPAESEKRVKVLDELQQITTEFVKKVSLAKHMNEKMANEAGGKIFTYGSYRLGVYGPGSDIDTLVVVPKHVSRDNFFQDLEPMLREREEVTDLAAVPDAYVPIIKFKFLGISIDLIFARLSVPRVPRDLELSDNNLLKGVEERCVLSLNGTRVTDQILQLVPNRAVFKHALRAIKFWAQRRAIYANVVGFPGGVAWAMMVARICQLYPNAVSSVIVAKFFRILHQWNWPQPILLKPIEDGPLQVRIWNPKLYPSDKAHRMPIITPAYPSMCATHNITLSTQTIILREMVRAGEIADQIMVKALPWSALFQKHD

[4] = target: T4, His6-MBP fused to Red1 residues 240-345 (S. pombe) (UniProt Q9UTR8); assay: pull-down; bacterial cell lysates co-expressing His6-MBP-Red1 fragments with untagged Pla1RRM; elution fractions on 12% SDS-PAGE
T4 sequence: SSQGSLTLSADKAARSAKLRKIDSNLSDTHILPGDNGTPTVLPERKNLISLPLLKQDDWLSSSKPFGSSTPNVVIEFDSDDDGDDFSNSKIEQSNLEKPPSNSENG

[5] = target: T5, His6-MBP fused to Red1 residues 288-322 (S. pombe) (UniProt Q9UTR8); assay: as above
T5 sequence: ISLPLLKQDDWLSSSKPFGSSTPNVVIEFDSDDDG

[6] = target: T6, His6-MBP fused to Red1 residues 288-345 (S. pombe) (UniProt Q9UTR8); assay: as above
T6 sequence: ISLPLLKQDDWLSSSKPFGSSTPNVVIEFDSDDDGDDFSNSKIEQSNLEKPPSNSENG

[7] = target: T7, Pla1FL (full-length Pla1, residues 1-566) (S. pombe) (UniProt Q10295); assay: SEC; Pla1FL mixed with Red1 288-345 (molar ratio 1:1.2), elution profile compared with free Pla1FL and free Red1 288-345; 20 mM HEPES pH 7.5, 150 mM NaCl, 1 mM DTT; both purified
T7 sequence: T1 sequence

[8] = target: T8, C-terminal RRM domain of Pla1 (Pla1RRM, residues 352-566), purified (S. pombe) (UniProt Q10295); assay: condition: 400-500 µM in the syringe, 40-50 µM in the cell; ITC; MicroCal PEAQ-ITC, 25 °C, 20 mM HEPES pH 7.5, 150 mM NaCl, 2 mM BME; 40-50 µM protein in the cell, 400-500 µM ligand in the syringe; one-binding site model; both purified
T8 sequence: T2 sequence

[9] = target: T9, Pla1RRM (C-terminal RRM domain of Pla1, residues 352-566) (S. pombe) (UniProt Q10295); assay: condition: 400-500 µM in the syringe, 40-50 µM in the cell; ITC; Red1 or Iss1 construct in the syringe (400-500 µM) titrated into Pla1RRM (wild type or mutant) in the cell (40-50 µM); 25 °C; 20 mM HEPES pH 7.5, 150 mM NaCl, 2 mM BME; one-binding site model; each independent measurement listed; both purified
T9 sequence: T2 sequence

binding [1]: no binding
B1: Red1 with residues 288-345 deleted (yeast two-hybrid) (protein, UniProt Q9UTR8)
chain: MSRSINLDELRKKALESKKKNEEDESNDSDKEDGEISEDDPVIDQSNSVPPMKVPTFPEQIPQLPPFDRFPGTNANFFPFGAPFMLPPALMFGPNTVPFFPQTASSNKTFSKRKRSSENSFNNRNKAKSSETSDSSNTSQSFKENRALKDTATSRPLALSSDTSYQKSEKAKSEKSPFLSTSKNSDANYSKTTNQKEAEKAVSQLFEVGVRFNDFIAEGIEPSVVHTLFLKLGLDSSSASSQGSLTLSADKAARSAKLRKIDSNLSDTHILPGDNGTPTVLPERKNLLTMSRSDYLALLRNKEEEIRRMTKLILRLESNKKPYRSPTSAADMKLPSVPVAAVDNKSKTHLDTFEKVVDLSSKADFVEAGPSISSSGASSSAATTNSDTTEQILEAPWLRKTEQIAVVHEEHPAQIKKSEIDILNNLIEKEEGELTKYQTLVKSKTEILTQLYTRKKQLLEQQGKGNVACLPKESDLSMDSITEVSAQADENSSQILSSKTSNAPNGTTETDFEDKVPLVDYISPFYRFKSYRFNQQFVERVPLKYRSLTYSNKIEPMKVFCKYETTGGVCNDDHCEASHFRDIKMTDDEIIQDLSRYIEGNDEIEKESYKSGLDIVMKNTDENTDFVDVATRIVEYHNLWKSERMTIPVAKVSI

binding [2]: binds
binding [1]: binds
binding [3]: no binding
B2: Full-length Red1 fused to the Gal4 activation domain (protein, UniProt Q9UTR8 1-712)
chain: MSRSINLDELRKKALESKKKNEEDESNDSDKEDGEISEDDPVIDQSNSVPPMKVPTFPEQIPQLPPFDRFPGTNANFFPFGAPFMLPPALMFGPNTVPFFPQTASSNKTFSKRKRSSENSFNNRNKAKSSETSDSSNTSQSFKENRALKDTATSRPLALSSDTSYQKSEKAKSEKSPFLSTSKNSDANYSKTTNQKEAEKAVSQLFEVGVRFNDFIAEGIEPSVVHTLFLKLGLDSSSASSQGSLTLSADKAARSAKLRKIDSNLSDTHILPGDNGTPTVLPERKNLISLPLLKQDDWLSSSKPFGSSTPNVVIEFDSDDDGDDFSNSKIEQSNLEKPPSNSENGLTMSRSDYLALLRNKEEEIRRMTKLILRLESNKKPYRSPTSAADMKLPSVPVAAVDNKSKTHLDTFEKVVDLSSKADFVEAGPSISSSGASSSAATTNSDTTEQILEAPWLRKTEQIAVVHEEHPAQIKKSEIDILNNLIEKEEGELTKYQTLVKSKTEILTQLYTRKKQLLEQQGKGNVACLPKESDLSMDSITEVSAQADENSSQILSSKTSNAPNGTTETDFEDKVPLVDYISPFYRFKSYRFNQQFVERVPLKYRSLTYSNKIEPMKVFCKYETTGGVCNDDHCEASHFRDIKMTDDEIIQDLSRYIEGNDEIEKESYKSGLDIVMKNTDENTDFVDVATRIVEYHNLWKSERMTIPVAKVSI

binding [4]: binds
binding [5]: binds
binding [6]: binds
B3: C-terminal RRM domain of Pla1 (Pla1RRM, residues 352-566), purified (domain or fragment)
chain: T2 sequence

binding [7]: binds
B4: Red1 288-345 (domain or fragment, S. pombe)
chain: T6 sequence
notes: source: E. coli BL21 (DE3), purified (His-Trap, TEV cleavage, second IMAC, Superdex 75); not shown: GB1, N-terminal, cleaved; His6, C-terminal, kept

binding [8]: no binding
B5: W298A/F305A double mutant of Red1 residues 288-345 (domain or fragment, UniProt Q9UTR8 288-345)
chain: T6 sequence with W11A, F18A

binding [9]: no binding
B6: Red1 288-345 RSRR (domain or fragment, UniProt Q9UTR8 288-345)
chain: T6 sequence with D30R, D32R, D33R

binding [9]: no binding
B7: Red1 288-345 W298A/F305A (domain or fragment, UniProt Q9UTR8 288-345)
chain: T6 sequence with W11A, F18A

binding [8]: no binding
B8: Red1_(RSRR): Red1 residues 288-345 with D317/S318/D319/D320 changed to RSRR (domain or fragment, UniProt Q9UTR8 288-345)
chain: T6 sequence with D30R, D32R, D33R
